# Measurements from PubChem BioAssay AID504832 (National Center for Advancing Translational Sciences (NCATS), 2011).
# About 18,000 (5.8%) of roughly 310,000 compounds were called active. The inconclusive results got no clear call from the source; some entries with a clear call stand among them for comparison. The call rests on the fitted dose curve; in most records, active means well fitted inhibition curve with a large enough effect; inconclusive means small, poorly fitted or top-dose-only effect, or another doubt; inactive means no such curve, though single readings can be large or run the other way. Potencies of inconclusive entries are left out as doubtful fits.
# Assay: Primary qHTS for delayed death inhibitors of the malarial parasite plastid, 48 hour incubation
# Conditions: P. falciparum luciferase growth in erythrocytes; series mostly up to 28.7 µM
# In short: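 Compounds are pin-transferred into medium, infected erythrocytes (2% hematocrit, 0.1% parasitemia final) are added, and plates sit one parasite generation at 37 C in 5% CO2. Detection reagent is then added and luminescence measured.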
# Potency means the concentration at half of the fitted maximal effect; tags describe the fitted curve by direction and shape.
row,Structure (SMILES),Potency
1,COc1ccc(-n2ncc3c2CC(C)(C)CC3NC(=O)c2oc(C)cc2C)cc1 (stereo not drawn),"inconclusive [inhibitor, single point]"
2,CC(OC(=O)c1ccc(Cl)c([N+](=O)[O-])c1)C(=O)N1CCN(Cc2ccccc2)CC1 (stereo not drawn),active: 11.7 µM
3,O=C(c1ccc(-n2cncn2)c([N+](=O)[O-])c1)N1CCN(S(=O)(=O)c2ccccc2F)CC1,"inconclusive [inhibitor, single point]"
4,CCCCCN(C(=O)CCC(=O)OC(C)C(=O)NC1CCCCC1)c1c(N)n(CCCC)c(=O)[nH]c1=O (stereo not drawn),"inconclusive [inhibitor, single point]"
5,Cc1cc(=O)oc2c(CN3CCN(C)CC3)c(O)c(Cl)cc12,inactive
6,COC(=O)C1=C(C)N(Cc2ccco2)C(=O)N[C@H]1c1ccc(Br)cc1,"inconclusive [inhibitor, single point]"
7,CN(C)c1cc[n+](CC(=O)c2ccc(OC(F)F)cc2)cc1,active: 0.738 µM
8,C=CCN(C(=O)c1csnn1)C(C(=O)NC1CCCC1)c1ccccc1 (stereo not drawn),inactive
9,COc1ccc(-c2ccc(NCCC3=CCCCC3)nn2)cc1OC,"inconclusive [inhibitor, partial curve, poor fit]"
10,CCN(CC)C(=O)C12C(=O)Oc3ccccc3C1C2(C)C(=O)c1ccc(F)cc1 (stereo not drawn),"inconclusive [inhibitor, partial curve, poor fit]"
11,CCCNC(=O)C1CCN(S(=O)(=O)c2cccs2)CC1,inactive
12,CCn1nc(C(=O)NNC(=O)c2ccccc2OCc2c(C)noc2C)c2ccccc2c1=O,"inconclusive [inhibitor, single point]"
13,CCOc1ccc(-c2nc(C#N)c(N3CCN(C)CC3)o2)cc1,"inconclusive [inhibitor, partial curve, poor fit]"
14,CCN(CC)c1ccc2cc(S(=O)(=O)c3ccc(Cl)cc3)c(=O)oc2c1,"inconclusive [inhibitor, single point]"
15,CCn1c(NC(=O)c2cccs2)nc2ccccc21,"inconclusive [inhibitor, single point]"
16,O=C(Nc1cccnc1)c1cc2c(s1)-c1ccccc1OC2,"inconclusive [inhibitor, single point]"
17,CC(C)=CC(=O)Nc1ccc(OCc2ccccc2)cc1,"inconclusive [inhibitor, partial curve]"
18,COc1cc(OC)c(-c2nc3c[n+](CC(=O)c4ccccc4)ccc3n2C)cc1OC,active: 1.85 µM
19,CCOc1ccc(NC(=S)NC(=O)c2cccnc2)c([N+](=O)[O-])c1,inactive
20,COc1ccccc1C(=O)NC1CCN(C(=O)Nc2ccc(F)cc2)CC1,"inconclusive [inhibitor, partial curve]"
21,Cc1ccc(C(C)C)c(OCc2ccc(C(=O)N/N=C/c3cccc(O)c3O)cc2)c1,active: 1.65 µM
22,CCn1ncc(/C=C/C(=O)Nc2c(C)nn(Cc3ccc(Cl)cc3Cl)c2C)c1C,"inconclusive [inhibitor, single point]"
23,C#CCOCCOCCOCCNc1nc(N2CCN(C(=O)CCCCCCCCCCNC(=O)Cn3cc(C[C@@H](C)O)nn3)CC2)nc(N2CCN(C(=O)CCCCCCCCCCNC(=O)[C@@H]([C@H](C)CC)n3cc(CCCCCN)nn3)CC2)n1,active: 2.33 µM

row,Structure (SMILES),Potency
1,CCOc1cc(CNCc2ccncc2)cc(Cl)c1OC,inactive
2,Cc1ccc(CNC(=O)CCc2cn(C)c3ccccc23)cc1,inactive
3,Cc1ccc(C(O)(CNCc2ccccc2)c2ccccc2)cc1 (stereo not drawn),"inconclusive [inhibitor, full curve]"
4,O=C(NC1CCCCC1)c1ccc2c(c1)OCCO2,inactive
5,CC(C)Cn1c(SCc2nc3ccccc3c(=O)[nH]2)nc2ccccc2c1=O,active: 7.38 µM
6,O=C(c1ccco1)c1cn(Cc2ccccc2Cl)c2ccccc12,"inconclusive [inhibitor, single point]"
7,Cc1ccc(O)c(N=Cc2sc3ccccc3c2Cl)c1,"inconclusive [inhibitor, partial curve]"
8,CC1(C(=O)Nc2cccc(C(F)(F)F)c2)CO1 (stereo not drawn),inactive
9,Cc1c(C(=O)N/N=C/c2cccnc2)sc(=S)n1C,inactive
10,CN(Cc1ccno1)Cc1cn(Cc2ccccc2)nc1-c1ccc2c(c1)OCO2,"inconclusive [inhibitor, partial curve]"
11,COc1ccccc1C1C2=C(N=C3SCC(=O)N31)c1ccccc1CC2 (stereo not drawn),"inconclusive [inhibitor, single point]"
12,O=C(NCCCN1CCOCC1)C1CCN(S(=O)(=O)c2cccc(C(F)(F)F)c2)CC1,inactive
13,CCCCCN(C(=O)CCC(=O)OCCOc1ccccc1Cl)c1c(N)n(CCCC)c(=O)[nH]c1=O,"inconclusive [inhibitor, single point]"
14,O=C(c1cc2sccc2n1Cc1ccccc1)N1CCCc2ccccc21,"inconclusive [inhibitor, single point]"
15,COc1ccccc1NC1=NC2(CCCC2)N=C(N)N1,"inconclusive [inhibitor, partial curve, poor fit]"
16,Cc1cccc(-c2nn(-c3ccccc3)cc2C(=O)Nc2cccc(S(=O)(=O)NC3=NCCC3)c2)c1,"inconclusive [inhibitor, partial curve, poor fit]"
17,CCC(C(=O)NC(C)CCc1ccccc1)n1nc(C)n2c(cc3occc32)c1=O (stereo not drawn),"inconclusive [inhibitor, single point]"
18,Cc1cccc(N2C(=O)C(Cl)=C(N3CCOCC3)C2=O)c1,"inconclusive [inhibitor, single point]"
19,Cc1ccc(CC(=O)NCCS(=O)c2ccc(Cl)cc2)cc1 (stereo not drawn),"inconclusive [inhibitor, partial curve, poor fit]"
20,COC(=O)c1ccc2c(c1)C(C)(C)C(/C=C/c1ccc(OC)c(OC)c1OC)=[N+]2C,active: 2.33 µM
21,COc1cc2c(cc1OC)C1=NC(=O)CN1C(SCc1ccccc1)=N2,active: 10.4 µM
22,COc1ccc(OC)c(CN2CCN(C(=O)c3cc(S(=O)(=O)Nc4ccccc4OC)ccc3C)CC2)c1,"inconclusive [inhibitor, partial curve]"
23,CCc1c(O)nc(SCC(=O)Nc2ccccc2OC)n(-c2ccccc2C)c1=O,"inconclusive [inhibitor, partial curve]"

row,Structure (SMILES),Potency
1,CC1=C(C(=O)c2ccccc2)C(c2cccc([N+](=O)[O-])c2)NC(=S)N1 (stereo not drawn),"inconclusive [inhibitor, partial curve]"
2,CCCn1ncc(CN2CCC(C(=O)Nc3cccc(-c4cccc(F)c4)c3)CC2)c1C,active: 7.38 µM
3,Cc1cccc(N2C(=O)C(Oc3ccc(Cl)cc3Cl)C2C=O)c1C (stereo not drawn),"inconclusive [inhibitor, partial curve, poor fit]"
4,COc1ccc(N(C(=O)CNC(=O)c2ccco2)C(C(=O)NC2CCCCC2)c2cccnc2)cc1 (stereo not drawn),inactive
5,O=C(O)c1ccc(NS(=O)(=O)c2cccc(C(=O)Nc3ccc(Br)cc3)c2)cc1,"inconclusive [inhibitor, partial curve, poor fit]"
6,CN1CCC(N(C)c2nc(-c3ccc([N+](=O)[O-])cc3)nc3ccccc23)CC1,"inconclusive [inhibitor, partial curve, poor fit]"
7,Cc1cc(C(=O)Nc2ccc(S(=O)(=O)N3CCCC3)cc2)cs1,"inconclusive [inhibitor, single point]"
8,COc1ccccc1OCc1ccc(C(=O)Nc2ccccc2)cc1,inactive
9,O=C(NC(=S)Nc1ccc(Cl)c(C(=O)O)c1)c1ccco1,"inconclusive [inhibitor, single point]"
10,CC(C)C(NS(=O)(=O)c1ccc2c(c1)C(C)(C)C(=O)N2C)C(=O)NCc1ccc(F)cc1 (stereo not drawn),inactive
11,COc1ccc(-c2nc3ccc(C4=C(C)CC(=O)NN4)cc3[nH]2)cc1,"inconclusive [inhibitor, partial curve]"
12,CS(=O)(=O)N1CCN(c2ccc([N+](=O)[O-])c(NCc3ccc(Cl)cc3)c2)CC1,"inconclusive [inhibitor, partial curve, poor fit]"
13,Cc1ccc(C(=O)OCC(=O)Nc2ccccc2)cc1NC(=O)c1ccco1,inactive
14,O=C(O)c1ccc(/C=C/C(=O)c2ccc3c(c2)OCCCO3)cc1,inactive
15,N#CC1=C(N)C(C#N)(C#N)C(c2cccnc2)C2CCCC=C12 (stereo not drawn),inactive
16,CC1CCc2c(nc3ncnn3c2N2CC(C)OC(C)C2)C1 (stereo not drawn),"inconclusive [inhibitor, single point]"
17,O=S(=O)(c1ccccc1)N1CCN(C2CCN(Cc3ccccc3)CC2)CC1,active: 0.104 µM
18,O=C(Nc1ccccn1)c1ccc(COc2ccccc2Cl)o1,inactive
19,CCN1CCc2c(OCC(=O)N3CCc4ccccc43)cccc2C1=O,"inconclusive [inhibitor, partial curve, poor fit]"
20,Cc1cc(C)cc(NC(=O)Nc2ccccc2N2CCCCC2)c1,"inconclusive [inhibitor, partial curve, poor fit]"
21,CC1(C)CC(NC(=O)c2ccc(Cl)c(Cl)c2)CC(C)(C)N1,"inconclusive [inhibitor, partial curve, poor fit]"
22,COc1ccc(CC(=O)N2CCN=C2SC)cc1OC,"inconclusive [inhibitor, partial curve, poor fit]"
